Measurements: PubChem BioAssay AID1460 (National Center for Advancing Translational Sciences (NCATS), 2008)
Where “and” joins values, the source holds several entries; their conditions need not be identical. Equal values may be shown once. About 5,800 (2.1%) of roughly 270,000 compounds were called active. Inconclusive means that the source gave no clear call. Such entries were picked first, then a sample of the others. Calls come from the whole dose curve; as a rule, active = well fitted inhibition curve with a large enough effect; inconclusive = small, poorly fitted or top-dose-only effect; inactive = flat fitted curve, though single readings scatter. Potencies beside an inconclusive call are fits to weak or partial responses and may not hold up.

What follows are molecules tested against Microtubule-associated protein tau (Homo sapiens) (UniProt P10636) (assay: qHTS for Inhibitors of Tau Fibril Formation, Thioflavin T Binding). Conditions: recombinant tau K18 P301L (four-repeat tau fragment), heparin-induced fibrillization, ThT fluorescence; series mostly up to 57.4 µM.
UniProt P10636, sequence (P10636 whole entry, looked up, the tested form may be a part): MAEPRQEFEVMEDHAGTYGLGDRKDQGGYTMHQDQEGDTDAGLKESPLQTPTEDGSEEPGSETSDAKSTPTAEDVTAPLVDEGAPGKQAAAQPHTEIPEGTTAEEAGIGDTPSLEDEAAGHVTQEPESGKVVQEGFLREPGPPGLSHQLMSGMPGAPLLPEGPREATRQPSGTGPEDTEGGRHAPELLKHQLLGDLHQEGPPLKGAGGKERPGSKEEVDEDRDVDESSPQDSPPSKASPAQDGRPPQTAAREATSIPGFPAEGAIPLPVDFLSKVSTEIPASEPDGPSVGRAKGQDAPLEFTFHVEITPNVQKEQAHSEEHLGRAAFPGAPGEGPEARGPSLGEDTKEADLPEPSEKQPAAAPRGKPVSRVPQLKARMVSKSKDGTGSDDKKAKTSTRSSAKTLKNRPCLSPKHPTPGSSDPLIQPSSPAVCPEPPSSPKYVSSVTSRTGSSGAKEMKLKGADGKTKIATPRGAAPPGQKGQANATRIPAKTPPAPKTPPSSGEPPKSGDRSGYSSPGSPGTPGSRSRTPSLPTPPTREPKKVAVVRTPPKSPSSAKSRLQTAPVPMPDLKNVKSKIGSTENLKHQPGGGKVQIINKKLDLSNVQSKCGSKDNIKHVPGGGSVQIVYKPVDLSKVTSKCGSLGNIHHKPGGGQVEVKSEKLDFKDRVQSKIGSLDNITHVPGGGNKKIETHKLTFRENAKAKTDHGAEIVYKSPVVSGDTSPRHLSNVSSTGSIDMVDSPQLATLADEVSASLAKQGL
Procedure, shortened: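 K18 P301L tau (15 uM + 0.24 uM Alexa 594-tagged), heparin 20 uM, NaOAc pH 7, 6 h 37 C; ThT 30 uM, 1 h RT, ex 450/em 510 nm.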
Note: nearly all actives have a fitted effect of over 55% in size.
Potency is the fitted concentration of half-maximal effect; tags give direction and shape of the fitted curve.

SMILES | Potency
COc1ccc(N2C(=O)CC(Sc3nc4ccccc4s3)C2=O)cc1OC (stereo not given) | inconclusive: 14.1 µM [inhibitor, partial curve]
Cc1cc(C(=O)COc2ccc(-c3nnco3)cc2)c(C)n1Cc1ccccc1 | inconclusive: 39.8 µM [inhibitor, single point]
Cc1ccc(NC(=O)CCCn2c(=O)c3cccn3c3ccccc32)c(Cl)c1 | inconclusive: 1.26 µM [inhibitor, full curve]
Cc1ccc(NC(=O)COC(=O)c2cc(Cl)cc(Cl)c2)c(Br)c1 | inactive
CC(=O)C1C(=O)C=C(c2ccco2)CC1c1ccccc1 (stereo not given) | inconclusive: 35.5 µM [inhibitor, single point]
CCOC(=O)N1CCN(c2ccc(F)cc2[N+](=O)[O-])CC1 | inconclusive: 15.8 µM [inhibitor, partial curve]
COc1ccc(CCNC(=O)CCc2c(C)nc3c(c(C)nn3-c3ccc(C)c(C)c3)c2C)cc1OC | inconclusive: 22.4 µM [inhibitor, partial curve]
COc1cc(OC)c(NC(=O)c2csc3c2CCC(C)C3)cc1Cl (stereo not given) | inactive
c1ccc(-c2ncc3ccccn23)cc1 | inconclusive: 15.8 µM [inhibitor, single point]
CCc1ccccc1N1CC(c2nc3ccccc3n2CCCOc2ccc(Cl)cc2)CC1=O (stereo not given) | inconclusive: 20 µM [inhibitor, partial curve, poor fit]
CCOc1nc(C)ccc1-c1noc(-c2ccccc2OC)n1 | inconclusive: 28.2 µM [inhibitor, single point]
COC(=O)N/N=C/c1cn(CCOc2ccccc2)c2ccccc12 | inconclusive: 15.8 µM [inhibitor, single point]
Clc1ccc(Nc2nc(C3CC3)cs2)cc1 | inconclusive: 15.8 µM [inhibitor, partial curve]
O=C(COC(=O)c1c(F)cccc1F)c1ccc[nH]1 | inactive
c1ccc(COc2ccc(OCCOCCn3cncn3)cc2)cc1 | inactive
CCOc1cccc(N2C(=O)CC(n3cnc4ccccc43)C2=O)c1 (stereo not given) | inactive
COc1ccc(C(=O)/C=C/C(=O)N(CC(=O)NC2CCCCC2)Cc2ccc(F)cc2)c(O)c1 | inconclusive: 39.8 µM [inhibitor, single point]
CCC(CC)C(=O)Nc1cc([N+](=O)[O-])ccc1Cl | inactive
Cc1cc(C(=O)COC(=O)c2ccco2)c(C)n1Cc1ccco1 | inactive
Cc1nn(-c2ccccc2)c(C)c1NC(=O)COc1ccc(F)cc1Cl | inactive
Cc1nnc2n(Cc3ccccc3)c(=O)c3c4c(sc3n12)CN(Cc1ccccc1)CC4 | inconclusive: 39.8 µM [inhibitor, single point]
Cc1cc(NS(=O)(=O)c2ccc(NC(=O)CSc3nc4sc(C)c(C)c4c(=O)[nH]3)cc2)no1 | inconclusive: 25.1 µM [inhibitor, partial curve]
CCCSc1nn2c(=O)c3ccccc3nc2s1 | inconclusive: 39.8 µM [inhibitor, single point]

SMILES | Potency
CCN(CC)c1ccc(/C=C(\C#N)C(N)=S)cc1 | active: 4.47 µM
CC1OC(OC2C(OC3C(O[C@H]4CC[C@]5(C)C6C=C[C@]78OC[C@@]9(CC[C@@H](C)[C@H](C)C97)[C@H](O)C[C@@]8(C)[C@]6(C)CC[C@H]5C4(C)C)OC(C)C(O)C3O)OC(CO)C(O)C2O)C(O)C(O)C1O (stereo not given in full) | inactive
Oc1cc2c(cc1O)C(c1ccccc1)CNCC2 (stereo not given) | inactive and inconclusive: 31.6 µM [inhibitor, single point]
COc1ccc2[nH]cc(CCNc3nc(-c4ccccc4CN(C)C)nc4ccccc34)c2c1 | inconclusive: 25.1 µM [inhibitor, partial curve]
CCOc1ccc(C(=O)N2CCC(c3nnc(-c4ccccc4OC)o3)CC2)cc1 | inactive
COc1ccccc1CNC(=O)c1ccc(Cn2c(SCc3ccccc3)nc3cccnc32)cc1 | inactive
C/C(=N\NC(=O)c1c(Cl)c(C)nn1C)c1ccc(NC(=O)COc2ccc(Cl)cc2C)cc1 | inconclusive: 2 µM [inhibitor, full curve]
CCOC(=O)c1c(CNCCN(CC)CC)n(C)c2cc(Br)c(OC)cc12 | inconclusive: 35.5 µM [inhibitor, partial curve]
CCCS(=O)(=O)c1cn2cccc(N)c2c1S(=O)(=O)CCC | inconclusive: 39.8 µM [inhibitor, single point]
CCOC(=O)c1c(NC(=O)CCCOc2ccccc2C)sc2c1CCC(C)C2 (stereo not given) | inconclusive: 14.1 µM [inhibitor, partial curve, poor fit]
CC(=O)c1cc(C(=O)Nc2ccc(C(=O)O)cc2)oc1C | inactive
Cc1ccc(NC2=C(Cl)C(=O)OC2OC(=O)c2ccco2)cc1 (stereo not given) | inconclusive: 14.1 µM [inhibitor, partial curve]
CS(=O)(=O)N(C(=O)NC(=O)NC12CC3CC(CC(C3)C1)C2)C1CCCCC1 | inactive
CCNC(=S)Nc1ccc(N(c2ccccc2)C(C)C)cc1 | inconclusive: 15.8 µM [inhibitor, partial curve]
CCOC(=O)c1c(C)oc2nc(C)nc(NCCCN3CCN(c4ccccc4)CC3)c12 | inconclusive: 25.1 µM [inhibitor, single point]
C=CCOc1nc2c(c(=O)n(C)c(=O)n2C)n1Cc1ccccc1 | inactive
CC(=O)C1=C(C)NC(SCC(=O)c2ccc(F)cc2)=C(C#N)C1c1ccco1 (stereo not given) | active: 15.8 µM
CCOC(=O)C1CCN(CC(=O)NC(=O)NC2CCCCC2)CC1 | inactive
O=C(NCCc1ccccc1)C(=O)c1c(-c2ccccc2)cc2ccccn12 | inconclusive: 11.2 µM [inhibitor, partial curve]
CCOC(=O)/C(=C/c1c(C)n(C)c2ccc([N+](=O)[O-])cc12)C(C)=O | inconclusive: 22.4 µM [inhibitor, partial curve]
Cc1ccc(OCC(=O)N2CCN(C(=O)CCC3CCCC3)CC2)cc1 | inactive
O=C(O)CC/C(=C\c1ccc(N2CCOCC2)c([N+](=O)[O-])c1)c1nc2ccccc2s1 | active: 7.94 µM
